# Laboratory results reported in the supplement of paper PMC8728848.
# Some of the results follow.
# B1: GALT1 615 (Arabidopsis thaliana), Q8L7F9 (protein)
# chain: DPMRGSHHHHHHGMASMTGGQQMGRDLYDDDDKSRLQKPYITAAASVVVTPNTTLPMEWLRITLPDFMKEARNTQEAISGDDIAVVSGLFVEQNVSKEEREPLLTWNRLESLVDNAQSLVNGVDAIKEAGIVWESLVSAVEAKKLVDVNENQTRKGKEELCPQFLSKMNATEADGSSLKLQIPCGLTQGSSITVIGIPDGLVGSFRIDLTGQPLPGEPDPPIIVHYNVRLLGDKSTEDPVIVQNSWTASQDWGAEERCPKFDPDMNKKVDDLDECNKMVGGEINRTSSTSLQSNTSRGVPVAREASKHEKYFPFKQGFLSVATLRVGTEGMQMTVDGKHITSFAFRDTLEPWLVSEIRITGDFRLISILA
# Key:
# Experiment in all cases: glycan array binding signal (z-score within array); higher = stronger binding
# Conditions in all cases: glycan notation: IUPAC condensed, linker removed
# Man(b1-4)GlcNAc = molecular target: Man(b1-4)GlcNAc
# Summary of the method: (§1)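 Glycan array data were curated from 3228 arrays in the Consortium for Functional Glycomics database and kept only where the protein sequence was available. Glycan names were converted to IUPAC-condensed notation, and columns mapping to the same glycan were averaged. The binding signal is a within-array Z-score, averaged across arrays of the same protein sequence at different concentrations or buffers and across linkers. Negative Z-scores can be read as non-binding.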
# Neu5Ac(a2-3)Gal = molecular target: Neu5Ac(a2-3)Gal
# Summary of the method: as §1
# [1] = molecular target: Neu5Ac(a2-3)Gal(b1-3)GalNAc
# Summary of the method: as §1
# [2] = molecular target: Neu5Ac(a2-3)Gal(b1-3)GalNAc(b1-3)Gal(a1-4)Gal(b1-4)Glc
# Summary of the method: as §1
# [3] = molecular target: Neu5Ac(a2-3)Gal(b1-3)GalNAc(b1-3)Gal(b1-4)GlcNAc
# Summary of the method: as §1
# [4] = molecular target: Neu5Ac(a2-3)Gal(b1-3)GalNAc(b1-4)[Neu5Ac(a2-3)]Gal(b1-4)Glc
# Summary of the method: as §1
# [5] = molecular target: Neu5Ac(a2-3)Gal(b1-3)GalNAc6S
# Summary of the method: as §1
# [6] = molecular target: Neu5Ac(a2-3)Gal(b1-3)GlcNAc
# Summary of the method: as §1
# [7] = molecular target: Neu5Ac(a2-3)Gal(b1-3)GlcNAc(b1-3)Gal(b1-3)GlcNAc
# Summary of the method: as §1
# [8] = molecular target: Neu5Ac(a2-3)Gal(b1-3)GlcNAc6S
# Summary of the method: as §1
# [9] = molecular target: Neu5Ac(a2-3)Gal(b1-3)[Fuc(a1-4)]GlcNAc
# Summary of the method: as §1
# [10] = molecular target: Neu5Ac(a2-3)Gal(b1-3)[Fuc(a1-4)]GlcNAc(b1-3)Gal(b1-3)[Fuc(a1-4)]GlcNAc
# Summary of the method: as §1
# [11] = molecular target: Neu5Ac(a2-3)Gal(b1-3)[Fuc(a1-4)]GlcNAc(b1-3)Gal(b1-4)[Fuc(a1-3)]GlcNAc
# Summary of the method: as §1
# [12] = molecular target: Neu5Ac(a2-3)Gal(b1-3)[Neu5Ac(a2-3)Gal(b1-4)]GlcNAc
# Summary of the method: as §1
# [13] = molecular target: Neu5Ac(a2-3)Gal(b1-3)[Neu5Ac(a2-6)]GalNAc
# Summary of the method: as §1
# Neu5Ac(a2-3)Gal(b1-4)Glc = molecular target: Neu5Ac(a2-3)Gal(b1-4)Glc
# Summary of the method: as §1
# [14] = molecular target: Neu5Ac(a2-3)Gal(b1-4)GlcNAc
# Summary of the method: as §1
# [15] = molecular target: Neu5Ac(a2-3)Gal(b1-4)GlcNAc(b1-2)Man(a1-3)[GlcNAc(b1-2)Man(b1-4)GlcNAc(b1-2)Man(a1-6)]Man(b1-4)GlcNAc(b1-4)GlcNAc
# Summary of the method: as §1
# [16] = molecular target: Neu5Ac(a2-3)Gal(b1-4)GlcNAc(b1-2)Man(a1-3)[Neu5Ac(a2-6)Gal(b1-4)GlcNAc(b1-2)Man(a1-6)]Man(b1-4)GlcNAc(b1-4)GlcNAc
# Summary of the method: as §1
# [17] = molecular target: Neu5Ac(a2-3)Gal(b1-4)GlcNAc(b1-3)Gal(b1-3)GlcNAc
# Summary of the method: as §1
# [18] = molecular target: Neu5Ac(a2-3)Gal(b1-4)GlcNAc(b1-3)Gal(b1-4)GlcNAc
# Summary of the method: as §1
# [19] = molecular target: Neu5Ac(a2-3)Gal(b1-4)GlcNAc(b1-3)Gal(b1-4)GlcNAc(b1-3)Gal(b1-4)GlcNAc
# Summary of the method: as §1
# [20] = molecular target: Neu5Ac(a2-3)Gal(b1-4)GlcNAc(b1-3)Gal(b1-4)[Fuc(a1-3)]GlcNAc
# Summary of the method: as §1
# [21] = molecular target: Neu5Ac(a2-3)Gal(b1-4)GlcNAc(b1-3)GalNAc
# Summary of the method: as §1
# [22] = molecular target: Neu5Ac(a2-3)Gal(b1-4)GlcNAc(b1-6)[Gal(b1-3)]GalNAc
# Summary of the method: as §1
# [23] = molecular target: Neu5Ac(a2-3)Gal(b1-4)GlcNAc(b1-6)[Neu5Ac(a2-3)Gal(b1-3)]GalNAc
# Summary of the method: as §1
# [24] = molecular target: Neu5Ac(a2-3)Gal(b1-4)GlcNAc6S
# Summary of the method: as §1
# [25] = molecular target: Neu5Ac(a2-3)Gal(b1-4)[Fuc(a1-3)]GlcNAc
# Summary of the method: as §1
# [26] = molecular target: Neu5Ac(a2-3)Gal(b1-4)[Fuc(a1-3)]GlcNAc(b1-3)Gal
# Summary of the method: as §1
# [27] = molecular target: Neu5Ac(a2-3)Gal(b1-4)[Fuc(a1-3)]GlcNAc(b1-3)Gal(b1-4)GlcNAc
# Summary of the method: as §1
# [28] = molecular target: Neu5Ac(a2-3)Gal(b1-4)[Fuc(a1-3)]GlcNAc(b1-3)Gal(b1-4)[Fuc(a1-3)]GlcNAc(b1-3)Gal(b1-4)[Fuc(a1-3)]GlcNAc
# Summary of the method: as §1
# [29] = molecular target: Neu5Ac(a2-3)Gal(b1-4)[Fuc(a1-3)]GlcNAc(b1-6)[Gal(b1-3)]GalNAc
# Summary of the method: as §1
# [30] = molecular target: Neu5Ac(a2-3)Gal(b1-4)[Fuc(a1-3)]GlcNAc(b1-6)[Neu5Ac(a2-3)Gal(b1-3)]GalNAc
# Summary of the method: as §1
# [31] = molecular target: Neu5Ac(a2-3)Gal(b1-4)[Fuc(a1-3)]GlcNAc6S
# Summary of the method: as §1
# [32] = molecular target: Neu5Ac(a2-3)Gal6S(b1-4)GlcNAc
# Summary of the method: as §1
# [33] = molecular target: Neu5Ac(a2-3)Gal6S(b1-4)[Fuc(a1-3)]GlcNAc
# Summary of the method: as §1
# Neu5Ac(a2-3)GalNAc = molecular target: Neu5Ac(a2-3)GalNAc
# Summary of the method: as §1
# [34] = molecular target: Neu5Ac(a2-3)GalNAc(b1-4)GlcNAc
# Summary of the method: as §1
# [35] = molecular target: Neu5Ac(a2-3)[GalNAc(b1-4)]Gal(b1-4)Glc
# Summary of the method: as §1
# [36] = molecular target: Neu5Ac(a2-3)[GalNAc(b1-4)]Gal(b1-4)GlcNAc
# Summary of the method: as §1
# [37] = molecular target: Neu5Ac(a2-3)[Neu5Ac(a2-6)]GalNAc
# Summary of the method: as §1
# Neu5Ac(a2-6)Gal = molecular target: Neu5Ac(a2-6)Gal
# Summary of the method: as §1
binder,measurement,setting,value
B1,glycan array binding signal (z-score),Man(b1-4)GlcNAc,-0.058
same,glycan array binding signal (z-score),Neu5Ac(a2-3)Gal,0.238
same,glycan array binding signal (z-score),[1],-0.547
same,glycan array binding signal (z-score),[2],-0.285
same,glycan array binding signal (z-score),[3],-0.257
same,glycan array binding signal (z-score),[4],-0.294
same,glycan array binding signal (z-score),[5],-0.084
same,glycan array binding signal (z-score),[6],-0.215
same,glycan array binding signal (z-score),[7],-0.265
same,glycan array binding signal (z-score),[8],-0.079
same,glycan array binding signal (z-score),[9],-0.325
same,glycan array binding signal (z-score),[10],-0.231
same,glycan array binding signal (z-score),[11],-0.545
same,glycan array binding signal (z-score),[12],-0.343
same,glycan array binding signal (z-score),[13],-0.475
same,glycan array binding signal (z-score),Neu5Ac(a2-3)Gal(b1-4)Glc,-0.177
same,glycan array binding signal (z-score),[14],-0.197
same,glycan array binding signal (z-score),[15],0.73
same,glycan array binding signal (z-score),[16],-0.097
same,glycan array binding signal (z-score),[17],-0.425
same,glycan array binding signal (z-score),[18],-0.188
same,glycan array binding signal (z-score),[19],-0.242
same,glycan array binding signal (z-score),[20],-0.317
same,glycan array binding signal (z-score),[21],0.095
same,glycan array binding signal (z-score),[22],-0.312
same,glycan array binding signal (z-score),[23],-0.225
same,glycan array binding signal (z-score),[24],-0.078
same,glycan array binding signal (z-score),[25],-0.085
same,glycan array binding signal (z-score),[26],-0.267
same,glycan array binding signal (z-score),[27],0.904
same,glycan array binding signal (z-score),[28],-0.28
same,glycan array binding signal (z-score),[29],-0.548
same,glycan array binding signal (z-score),[30],-0.534
same,glycan array binding signal (z-score),[31],-0.462
same,glycan array binding signal (z-score),[32],-0.257
same,glycan array binding signal (z-score),[33],-0.04
same,glycan array binding signal (z-score),Neu5Ac(a2-3)GalNAc,-0.187
same,glycan array binding signal (z-score),[34],-0.452
same,glycan array binding signal (z-score),[35],-0.15
same,glycan array binding signal (z-score),[36],-0.09
same,glycan array binding signal (z-score),[37],-0.368
same,glycan array binding signal (z-score),Neu5Ac(a2-6)Gal,-0.271
